Measured values from paper PMC12040169 (PLOS Biology, 2025).
Some of the results follow.

tested on: T1, C. trachomatis L2/434/Bu expressing GFP (CTL2-GFP); parameters: species or system HeLa; C. trachomatis total inclusion area by high-content imaging, normalised to DMSO; settings: total inclusion area; 28.5 h, 10 µM; inhibitor
T1 construct: L2/434/Bu GFP intracellular growth in HeLa cells
Method in brief: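 Bulk GFP and resorufin signals were read first. Wells were then fixed, stained with Hoechst and imaged to detect GFP inclusions and host nuclei. MICs followed the previously described calculation.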

Going from `CN(C)S(=O)(=O)n1cc(/C=C/c2nc(N)nc(-c3ccccc3O)n2)c2ccccc21` [CBK268386] to `CN(C)S(=O)(=O)N1CCN(C(=O)N(c2ccccc2)c2ccccc2)CC1` [CBK267466], the “% of control remaining” value rises from 86.4219 to 103.256.

Compared with `CCNC(=S)N[C@@H]1CC[C@@]2(Cc3ccc(OC)c(OC)c3)CCN(C)[C@H]2C1` [CBK023811], `COc1ccc(C2(CNC(C)(C)CN)CCCC2)cc1OC` [CBK008989] is lower in “% of control remaining” value: 71.1089 for the first, 3.209 for the second.

First: O=C(Cc1ccccc1)Nc1ncc(Cc2ccccc2)s1 [CBK287322]
Second: O=C(Cc1ccccc1)Nc1nnc(Cc2ccc3c(c2)OCCO3)o1 [CBK287661]
The “% of control remaining” value of the first is higher: 116.712 for the first, 87.4196 for the second.

First: Cc1cnccc1-c1cn(C)nc1-c1ccc(CNC(=O)c2cccc(N(C)C)c2)cc1 [CBK285633]
Second: CC(=O)N(C)c1nc(-c2cccc(N(C)C)c2)ccc1C(=O)NCc1cccnc1 [CBK076639]
The “% of control remaining” value of the first is lower: 109.634 for the first, 118.139 for the second.

Compared with `CCC(=O)N[C@H](CC)Cn1ncc2ccccc2c1=O` [CBK284303], `CCC(CN1CCCC1)NC(=O)C1CC(=O)Nc2ccccc21` (stereo not shown) [CBK282757] is higher in “% of control remaining” value: 93.0716 for the first, 119.517 for the second.

Compared with `O=c1sc(Nc2ccccc2)nc2ccsc12` [CBK287853], `O=C(CSc1nc2cccnc2[nH]1)Nc1cccc(F)c1` [CBK270113] is higher in “% of control remaining” value: 45.5528 for the first, 131.136 for the second.

Compared with `Cc1cc(/C=C2/C(=N)N3N=C(Cc4ccccc4)SC3=NC2=O)c(C)n1-c1ccccc1` [CBK264318], `Cc1ccc(NC(=O)CN2C(=O)S/C(=C\c3cc(C)n(-c4cccc(C(=O)O)c4)c3C)C2=O)cc1` [CBK264725] is higher in “% of control remaining” value: 100.238 for the first, 115.096 for the second.

First: CSCCC(=O)NCCc1c[nH]c2ccc(Cl)cc12 [CBK159775]
Second: COCCCNC(=O)Cn1c(-c2cccs2)cc2cccnc21 [CBK282559]
The “% of control remaining” value of the first is lower: 109.317 for the first, 120.027 for the second.

First: COc1cc(CNc2nc(-c3ccc(C(C)(C)C)cc3)cn3ccnc23)cc(OC)c1OC [CBK066615]
Second: CCOc1ccc(-c2cncc(NCCc3ccncc3)n2)cc1 [CBK065774]
The “% of control remaining” value of the first is lower: 94.2241 for the first, 103.833 for the second.

First: c1ccc(CCNc2cc(-c3cccc4ccccc34)ncn2)nc1 [CBK037762]
Second: CC(NC(=O)N(Cc1ccc(CN)cc1)Cc1ccc2ccccc2c1)c1cccc2ccccc12 (stereo not shown) [CBK046092C]
The “% of control remaining” value of the first is higher: 82.4873 for the first, 47.0797 for the second.

Compared with `CCc1noc(C)c1C(=O)N1CCN(C2CCCC2O)CC1` (stereo not shown) [CBK304869], `O=C(c1ccco1)N1CCN(C2C3CCCC2CNC3)CC1` (stereo not shown) [CBK284992] is higher in “% of control remaining” value: 57.5192 for the first, 115.34 for the second.

Going from `Cc1cc2nccc([C@H]3CC[C@H](CNC(=O)C(C)C)CC3)n2n1` [CBK283475] to `CC(=O)Nc1ccc(Oc2cc(C)nc(C3CCNCC3)c2)cc1` [CBK283468], the “% of control remaining” value rises from 88.4652 to 99.2535.

Going from `O=C(NC(=S)Nc1cccc(-c2nc3ncccc3o2)c1)c1ccc(-c2cccc([N+](=O)[O-])c2)o1` [CBK267870] to `O=C(O)c1cccc(CSc2nnc(-c3ccccc3)c(-c3ccccc3)n2)c1` [CBK269165], the “% of control remaining” value falls from 125.035 to 79.7925.

Going from `O=C(O)CCC(=O)NNC(=O)c1cccc(O)c1` [CBK262116] to `O=C(COc1ccccc1[N+](=O)[O-])Nc1cc(C(=O)O)cc(C(=O)O)c1` [CBK263983], the “% of control remaining” value rises from 97.3392 to 104.626.

First: Cc1ncsc1C(=O)N1CCC(c2cccc(Cc3ccccc3Cl)n2)CC1 [CBK286146]
Second: COCCn1ccnc1C1CCN(C(=O)C(O)c2cccc(Cl)c2)CC1 (stereo not shown) [CBK306901]
The “% of control remaining” value of the first is higher: 77.8595 for the first, 44.1961 for the second.

Going from `COc1cc2c(cc1OC)CN(C(=O)c1cncnc1)CC2` [CBK122748] to `COc1ccc(C(=O)c2sc3nc(C)c(C)c(C)c3c2N)cc1OC` [CBK074427], the “% of control remaining” value rises from 82.8573 to 89.9601.

Compared with `CC1=C[C@@H](CNC(=O)Nc2ccccc2)[C@H](C(C)C)C[C@H]1CC(=O)N1CCN(C)CC1` [CBK289048], `COCCNc1nc(-c2ccc3[nH]ccc3c2)ccc1C(=O)N1CCN(C)CC1` [CBK105956] is higher in “% of control remaining” value: 78.3511 for the first, 93.4156 for the second.

First: COC1C(O)=CC(=O)OC1(CCc1ccco1)CCc1ccco1 (stereo not shown) [CBK001858]
Second: Cc1cc2c(=O)n(Cc3ccco3)c(SCc3cc(O)[nH]n3)nc2s1 [CBK268291]
The “% of control remaining” value of the first is higher: 134.708 for the first, 125.705 for the second.

Compared with `O=S(=O)(O)c1cc(S(=O)(=O)O)c2cc(O)c(S(=O)(=O)O)cc2c1` [CBK278319N], `COc1cc([N+](=O)[O-])c2[nH]c(C(=O)O)c(CCNC(C)=O)c2c1` [CBK260895] is higher in “% of control remaining” value: 89.9854 for the first, 99.8684 for the second.

First: Cc1nn(C(C)C(=O)Nc2cc(C(F)(F)F)ccc2Cl)c(C)c1[N+](=O)[O-] (stereo not shown) [CBK268697]
Second: COc1ccc([N+](=O)[O-])cc1NC(=O)Nc1ccc(Cl)c(Cl)c1 [CBK267593]
The “% of control remaining” value of the first is lower: 99.018 for the first, 116.542 for the second.

Going from `O=C(NC1CCCC1)c1ccc(=O)[nH]c1` [CBK058093] to `Cc1ccc(NC(=O)N(CCC#N)C2CCCCC2)cc1` [CBK156381], the “% of control remaining” value rises from 71.108 to 98.9789.

Compared with `COc1ccc(S(=O)(=O)NC(CCSC)c2nnc3ccccn23)cc1` (stereo not shown) [CBK304402], `Cc1ccc(SCCNS(=O)(=O)c2ccc3ccccc3c2)cc1` [CBK267504] is higher in “% of control remaining” value: 67.0509 for the first, 93.3425 for the second.

Compared with `COc1ccccc1-c1ccccc1CN(C)Cc1ccccc1N1CCOCC1` [CBK286000], `COc1ccc([N+](=O)[O-])c(Oc2ccccc2OCc2ccccc2)n1` [CBK002753] is lower in “% of control remaining” value: 98.136 for the first, 53.4822 for the second.

Going from `O=C(O)c1ccc(OCC(O)Cn2nnc3ccccc32)cc1` (stereo not shown) [CBK286616] to `COc1ccc2[nH]c3c(c2c1)CCN(CC(C)O)C31CCN(CCOc2ccccc2)C1` (stereo not shown) [CBK084612T], the “% of control remaining” value falls from 95.0036 to 38.9753.

Compared with `Cc1oc2c(c1C(=O)NCC(=O)NCC(=O)O)CCCC2` [CBK264015], `Cc1onc(-c2ccccc2)c1CNC(=O)[C@@H]1CCCN1C` [CBK144077] is lower in “% of control remaining” value: 105.766 for the first, 88.4249 for the second.

Compared with `O=C(CN1CCC(O)(c2ccccc2F)CC1)N1CCCCC1` [CBK281938], `NC(=O)CN1CC2(CCN(Cc3cccc4cccnc34)CC2)c2ccccc21` [CBK137021] is lower in “% of control remaining” value: 81.8569 for the first, 71.8499 for the second.

Going from `COc1cc(Br)cc(C2NC(=O)c3cnc(SC)nc3N2)c1O` (stereo not shown) [CBK291179] to `CCn1c(C)nc2cc(NC(=O)c3oc(C)nc3C)ccc21` [CBK281881], the “% of control remaining” value falls from 115.773 to 114.105.

Going from `CCc1nn(C)c2[nH]nc(NC(=O)Cc3csc(C)n3)c12` [CBK305538] to `CC(C)(C)c1cc(C[C@H]2CNCC[C@H]2CC(=O)Nc2nccs2)no1` [CBK288798], the “% of control remaining” value rises from 11.4528 to 115.491.

Going from `CC(C)CCCC(C)NC(=O)COc1cc(C(=O)O)cc(C(=O)O)c1` (stereo not shown) [CBK296646] to `COc1cc(/C=C/C(=O)O)ccc1OCC(=O)Nc1ccccc1` [CBK265695], the “% of control remaining” value rises from 115.257 to 118.391.

First: CCCCc1ccc(NC(=O)Nc2ccc3ccc(Cl)nc3n2)cc1 [CBK063259]
Second: Cc1cc(C(=O)Nc2ccc([C@@H](O)[C@H]3COCC(=O)N3Cc3ccccc3)cc2)n(C)n1 [CBK289669]
The “% of control remaining” value of the first is lower: 66.0983 for the first, 110.293 for the second.

Compared with `CC(=O)N1CCC(c2nc(Cc3cccs3)no2)C1` (stereo not shown) [CBK282998], `CCc1nc2n(n1)CC(NC1CCCc3ccccc31)CC2` (stereo not shown) [CBK304837] is lower in “% of control remaining” value: 91.4862 for the first, 75.2907 for the second.

First: Cc1cccc(N2CCN(CC(=O)Nc3cc(Cl)ccc3C#N)CC2)c1 [CBK306055]
Second: Cc1ccc(Cl)cc1N(CC(=O)O)S(=O)(=O)c1ccccc1 [CBK262424]
The “% of control remaining” value of the first is lower: 64.9234 for the first, 97.6897 for the second.

First: O=C(CCN1C(=O)c2cccc3cccc(c23)C1=O)Oc1ccc2c(c1)OCO2 [CBK266237]
Second: Oc1nc2cccnc2cc1-c1ccc2c(c1)OCCCO2 [CBK081299]
The “% of control remaining” value of the first is lower: 88.3183 for the first, 114.42 for the second.

Going from `Nc1ncc(-c2cc(C(F)(F)F)cc(C(F)(F)F)c2)nc1-c1ccc(O)cc1` [CBK122503] to `Cc1cc(COc2nccc(C(F)(F)F)n2)no1` [CBK115800], the “% of control remaining” value rises from 78.7506 to 95.0288.

First: O=C(NCc1ccncc1)C1CCCN(c2nc3c(-c4ccccc4)csc3c(=O)[nH]2)C1 (stereo not shown) [CBK215493]
Second: O=S(=O)(c1ccc(-n2cnc(Cl)c2Cl)cc1)N1CCCN(Cc2csc(-c3ccccc3)n2)CC1 [CBK062790]
The “% of control remaining” value of the first is higher: 86.7017 for the first, 82.291 for the second.

First: Cn1c(=O)c2c(nc(N3CCOCC3)n2CCC/N=C2\CCCCN2)n(C)c1=O [CBK218356]
Second: CCc1nc2c(N3CCCn4nc(C(O)C5CC5)cc4C3)ncnc2o1 (stereo not shown) [CBK307543]
The “% of control remaining” value of the first is higher: 86.2096 for the first, 76.4115 for the second.

Compared with `CCN1C(=O)c2ccccc2C(=O)[C@@]2(C)CN(C(=O)C(C)C)C[C@@H]12` [CBK281680], `Cn1c(N2CCC(C(=O)NC3CC3)CC2)nc2ccccc21` [CBK283940] is lower in “% of control remaining” value: 81.5783 for the first, 50.782 for the second.

Compared with `Cc1cc(I)ccc1OCCCCN1CCN(C)CC1` [CBK269652C], `CNS(=O)(=O)CCNC(=O)N1CCCN(Cc2ccc(F)cc2)CC1` [CBK304658] is lower in “% of control remaining” value: 87.0053 for the first, 58.316 for the second.

Going from `CN(C)CCN(C(=O)Cc1ccc2c(c1)CCC2)C1CCN(C)CC1` [CBK282182] to `CCC(=O)N1CCC2(CCCC[C@H]3CN(C(C)=O)CC[C@H]3NC(=O)CNC2=O)CC1` [CBK292147], the “% of control remaining” value rises from 75.7816 to 98.4096.

For `OCCN(CCO)c1ccccc1N(CCO)CCO` [CBK009141], the “% of control remaining” value was 49.8459.
